According to PubChem BioAssay AID1346428 (National Center for Advancing Translational Sciences (NCATS), 2018):
Values joined by “and” are separate entries in the source; they are usually repeats but may differ in a detail not shown here. Equal entries are not always repeated. The whole screen tested about 48,000 compounds, of which about 1,200 (2.5%) were called active. About 2% were inconclusive and are not listed.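 The calls were made as follows: active = activation of at least 60% and not above a set upper limit (about 1 call in 100 departs from these limits); inconclusive = activation of 40% to 60%, or above that upper limit; inactive = activation under 40%.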 The list shows a part of the results.

These molecules were tested against Probable G-protein coupled receptor 32 (Homo sapiens) (UniProt O75388) (assay: qHTS for Agonists of Human Resolvin D1 Receptor DRV1). Conditions: CHO-K1 GPR32 beta-arrestin PathHunter luminescence, 90 min; at 76.9 µM; stronger effect = higher value; zero percent set by DMSO-only wells.
Procedure, shortened: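 Agonism was scored by beta-Gal fragment complementation (chemiluminescent read, 1 h detection at ambient temperature) reporting beta-arrestin binding to GPR32 in engineered CHO-K1 cells. Compound treatment lasted 90 min at 37 C, normalized to a DMSO basal control.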
Also: 0% is about no effect.

UniProt O75388, sequence (O75388 whole entry, looked up, the tested form may be a part): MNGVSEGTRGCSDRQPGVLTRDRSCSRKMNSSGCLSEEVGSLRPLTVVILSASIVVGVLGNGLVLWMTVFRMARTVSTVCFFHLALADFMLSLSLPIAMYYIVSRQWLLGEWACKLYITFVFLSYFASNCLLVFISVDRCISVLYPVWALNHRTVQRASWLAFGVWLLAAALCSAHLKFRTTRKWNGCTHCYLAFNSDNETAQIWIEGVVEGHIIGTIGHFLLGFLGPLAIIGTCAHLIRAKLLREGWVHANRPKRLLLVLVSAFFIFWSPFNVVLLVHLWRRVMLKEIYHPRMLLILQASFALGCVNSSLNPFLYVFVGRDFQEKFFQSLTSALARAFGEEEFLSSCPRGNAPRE

Row | SMILES | activation
1 | O=P1(N(CCCl)CCCl)NCCCO1 (stereo unspecified) | inactive: -7.74% and inactive: 8.76%
2 | O=C(COc1cc(Cl)ccc1Cl)Nc1ccc(Cl)cc1C(=O)c1ccccc1 | inactive: -14%
3 | NC(=O)CS(=O)C(c1ccccc1)c1ccccc1 (stereo unspecified) | inactive: -20.6%
4 | CN1C(=O)CCS(=O)(=O)C1c1ccc(Cl)cc1 (stereo unspecified) | inactive: -30.6% and inactive: -2.32%
5 | Cc1cccc(Cc2cnc[nH]2)c1C | inactive: -7.87%
6 | Cc1ccc2nc(NC(=O)c3cccn(Cc4ccc(Cl)cc4)c3=O)sc2c1 | inactive: 6.54%
7 | COC[C@@H](NC(C)=O)C(=O)NCc1ccccc1 | inactive: -19.2%
8 | O=C1C=CC(=O)C=C1 | inactive: 4.86%
9 | Cc1ccc(Cl)cc1NC(=O)N(Cc1ccc2c(c1)OCO2)C1CCN(Cc2ccccc2)CC1 | inactive: -1.92%
10 | CCOP(=S)(OCC)Oc1ccc2c(C)c(Cl)c(=O)oc2c1 | inactive: 3.87%
11 | CCOC(=O)C(c1c(O)c2ccccc2oc1=O)c1c(O)c2ccccc2oc1=O | inactive: -13.3%
12 | Cn1c(=O)n(C)c2cc(CNCCc3ccc(F)cc3)ccc21 | inactive: -0.681%
13 | Cc1ccc(NC(=O)Cn2cc(C(=O)c3ccccc3)c3ccccc32)cc1 | inactive: -16.5%
14 | Cc1cccc(-c2nc(CN3C(=O)CN=C(c4ccccc4)c4ccccc43)c(C)o2)c1 | active: 62.6%
15 | CCOC(=O)NC(O)C(Cl)(Cl)Cl (stereo unspecified) | inactive: -17.7%
16 | COc1ccc(C(c2ccc(OC)cc2)C(Cl)(Cl)Cl)cc1 | inactive: -25.9%
17 | Cc1ccc(-n2c(/C=C\c3ccc(F)cc3)nc3ccccc3c2=O)cc1Cl | inactive: -14.6%
18 | CC(C)C12CN3CC(C(C)C)(CN(C1)C3c1ccccn1)C2=O (stereo unspecified) | inactive: -8.58%
19 | CCOc1ccc(NC(=O)Cn2cc(C(=O)c3ccccc3)c3ccccc32)cc1 | inactive: -15%
20 | COc1ccc(C)cc1NC(=O)N(Cc1ccc2c(c1)OCO2)C1CCN(Cc2ccccc2)CC1 | inactive: -5.29%
21 | CCOc1ccc(CN(CCc2ccc3c(c2)OCO3)Cc2cccc(OC)c2)cc1 | inactive: -7.28%
22 | COc1ccccc1N1CCNCC1 | inactive: -10.4% and inactive: -4.69%
23 | Cc1cccc(Cn2cccc(C(=O)Nc3ccc4c(c3)OCCO4)c2=O)c1 | inactive: -9.64%

Row | SMILES | activation
24 | CC(=O)c1c(O)c(C)c(O)c(Cc2c(O)c3c(c(C(=O)/C=C/c4ccccc4)c2O)OC(C)(C)C=C3)c1O | inactive: -24.4%
25 | CCN(CC)CCSc1nc2ccccc2c(=O)n1-c1ccc(Cl)cc1 | inactive: -27.6%
26 | CC(=O)[C@H]1CC[C@H]2[C@@H]3CC[C@H]4C[C@H](O)CC[C@]4(C)[C@H]3C(=O)C[C@]12C | inactive: 38.5% and inactive: -6.27%
27 | C=C1C[C@@H]2[C@H](CC[C@]3(C)C(=O)CC[C@@H]23)[C@@]2(C)C=CC(=O)C=C12 | inactive: 12.4%
28 | COc1cccc(NC(=O)Cn2cc(C(=O)c3ccccc3)c3ccccc32)c1 | inactive: -18.7%
29 | CNC(C)Cc1ccccc1OC (stereo unspecified) | inactive: -2.63%
30 | C[C@H]1CNCCc2ccc(Cl)cc21 | inactive: 9.95%
31 | C[C@]12C/C(=C/O)C(=O)C[C@@H]1CC[C@@H]1[C@@H]2CC[C@@]2(C)[C@H]1CC[C@]2(C)O | active: 89%
32 | Cc1ccc(Cn2cccc(C(=O)Nc3ccc4c(c3)OCO4)c2=O)cc1 | inactive: 20.3%
33 | CC1=NN=C(c2ccc(N)cc2)c2cc3c(cc2C1)OCO3 | inactive: -1.27%
34 | O=C(O)c1cc[c]([Hg][Cl])cc1 | inactive: 19.4%
35 | CCC(=O)O[C@@H]1C=C2CCC3C(CCC4(C)C3CC[C@@H]4OC(=O)CC)C2CC1 (stereo partly specified) | inactive: -4.52%
36 | CCN(Cc1ccc(Cl)nc1)/C(=C/[N+](=O)[O-])NC | inactive: -1.95%
37 | Cc1ccc(CN2C(=O)c3ccccc3Sc3ccc(C(=O)N4CCC5(CC4)OCCO5)cc32)cc1 | inactive: -28.2%
38 | CN1CC[C@]23c4c5ccc(O)c4O[C@H]2[C@@H](O)CC[C@H]3[C@H]1C5 | inactive: -47.5%
39 | C/C(O)=C(\C#N)C(=O)Nc1cc(Br)ccc1Br | inactive: -4.08%
40 | Cc1ccccc1-n1nc(C)c2c1NC(=O)CSC2c1ccc(N(C)C)cc1 (stereo unspecified) | inactive: -3.65%
41 | CCCCCc1nc2ccccc2c(=O)n1-c1ccc(C)cc1 | inactive: 26.7%
42 | CCCC1CCCCN1 (stereo unspecified) | inactive: -9.78%
43 | Cc1ccc(NC(=O)CN2C(=O)CN=C(c3ccccc3)c3ccccc32)cc1 | inactive: -25.3%
44 | CCCC(C)(COC(N)=O)COC(=O)NC(C)C (stereo unspecified) | inactive: -6.54% and inactive: 4.27%
45 | O=C(N[C@H]1N=C(c2ccccc2F)c2cccc3c2N(CC3)C1=O)c1cc2ccccc2[nH]1 | inactive: -1.76%
46 | CN1C2CCC(C)(C)C1CC(OC(=O)C(O)(c1cccs1)c1cccs1)C2 (stereo unspecified) | inactive: -6.18%

Row | SMILES | activation
47 | O=C(CBr)Nc1ccc(Cl)cc1C(=O)c1ccccc1F | inactive: -6.65%
48 | CCCCC/C=C\C/C=C\C/C=C\C/C=C\CCCC(=O)NCC(=O)O | inactive: 10.3%
49 | COc1cccc(-n2c(/C=C/c3ccccc3O)nc3ccccc3c2=O)c1 | inactive: 26.4%
50 | CC(O)CN1CCN(CC(=O)[O-])CCN(CC(=O)[O-])CCN(CC(=O)[O-])CC1.[Gd+3] (stereo unspecified) | inactive: 5.1%
51 | COc1ccc(-n2c(/C=C\c3ccccc3F)nc3ccccc3c2=O)cc1OC | inactive: 11.3%
52 | O=C1CN=C(c2ccccc2Cl)c2cc(Cl)ccc2N1Cc1cccc(Cl)c1 | inactive: -17.4%
53 | C[C@]12CCC(=O)C=C1CC[C@@H]1[C@@H]2CC[C@]2(C)C(=O)CC[C@@H]12 | inactive: 48.8%
54 | OC(c1ccccc1)(c1ccccc1)C1CCNCC1 | inactive: -20.8%
55 | CC(C)c1nn2c(=O)cc(COC(=O)Cc3ccccc3)nc2s1 | inactive: 3.99%
56 | NC1CCc2cc(O)c(O)cc2C1 (stereo unspecified) | inactive: -21.5%
57 | NC(=O)OCCCc1ccccc1 | inactive: 2.78%
58 | Nc1c(Cl)c(Cl)c(Cl)c(Cl)c1Cl | inactive: 11.1%
59 | COc1cc(OC)c(OC)cc1C=O | inactive: 22.8%
60 | Fc1cc(Br)ccc1CBr | inactive: -10.8%
61 | NN=C(N)N | inactive: 2.7% and inactive: -2.8% and inactive: -1.03%
62 | Clc1ccc(C(c2ccc(Cl)cc2)C(Cl)(Cl)Cl)cc1 | inactive: -10.2%
63 | Cc1ccc(NC(=O)c2cccn(Cc3ccccc3C)c2=O)c(C)c1 | inactive: -7.39%
64 | COc1cc(N)c(Cl)cc1C(=O)NC1CN2CCC1CC2 (stereo unspecified) | inactive: -3.3%
65 | CC(C(O)c1ccccc1)N(C)C/C=C/c1ccccc1 (stereo unspecified) | inactive: 1.91%
66 | C[N+]1(C)C2CCC1CC(OC(=O)c1c[nH]c3ccccc13)C2 (stereo unspecified) | inactive: 6.72%
67 | c1ccc2sc(C3(N4CCCCC4)CCCCC3)cc2c1 | inactive: -12.2%
68 | CCc1cc2c(s1)-n1c(C)nnc1CN=C2c1ccccc1Cl | inactive: 12.2%
69 | CC(C)(C)c1ccc(C(=O)Nc2ccc(Cl)cc2C(=O)c2ccccc2)cc1 | inactive: -12.5%

Row | SMILES | activation
70 | O=C(Nc1cc(C(F)(F)F)cc(C(F)(F)F)c1)c1cccn(Cc2ccccc2Cl)c1=O | inactive: -2.58%
71 | O=C(CCCN1CCC(n2c(=O)[nH]c3ccccc32)CC1)c1ccc(F)cc1 | inactive: 36.1%
72 | C[C@]12CC[C@H]3[C@@H](CCC4=CC(=O)CC[C@@H]43)[C@@H]1CC[C@@H]2OC(=O)CCC1CCCCC1 | inactive: 19.3%
73 | CCC1(CC)C(=O)NC(=O)NC1=O | inactive: -12.9%
74 | CCN1CCCC1CNC(=O)C(O)(c1ccccc1)c1ccccc1 (stereo unspecified) | inactive: -13.6%
75 | C=Cc1ccc(Cn2c(C)c(CNCCc3cc(OC)ccc3OC)c(C(=O)O)c2C)cc1 | inactive: 46%
76 | C[C@@H]1CN(C2CCC(C#N)(c3ccc(F)cc3)CC2)CC[C@]1(C(=O)O)c1ccccc1 (stereo partly specified) | inactive: -1.48%
77 | CCCCc1nn2c(=O)cc(COC(=O)Cc3ccccc3)nc2s1 | inactive: 1.5%
78 | COc1ccc(OC)c(C(O)C(C)N)c1 (stereo unspecified) | inactive: -5.79%
79 | CCC(=O)O[C@H]1CC[C@H]2[C@@H]3CCC4=CC(=O)CC[C@]4(C)[C@H]3CC[C@]12C | inactive: 33.5%
80 | COc1cccc([C@@]2(O)CCCC[C@@H]2CN(C)C)c1 | inactive: -1.89%
81 | C[C@]12CCC3C(CC[C@H]4C[C@H](O)CC[C@]34C)C1CC[C@@H]2C(=O)CO (stereo partly specified) | inactive: -1.08%
82 | CO[C@]12CC[C@@]3(C[C@@H]1[C@](C)(O)C(C)(C)C)[C@@H]1Cc4ccc(O)c5c4[C@@]3(CCN1CC1CC1)[C@H]2O5 | inactive: -3.01%
83 | Cc1ccccc1Cn1cccc(C(=O)Nc2nc3ccccc3s2)c1=O | inactive: 0.706%
84 | O=c1[nH]c2ccccc2c(=O)n1-c1ccc(Cl)c(Cl)c1 | inactive: -22.2%
85 | Cc1cccc(NC(=O)Cn2cc(C(=O)c3ccccc3)c3ccccc32)c1C | inactive: -3.44%
86 | Cc1oc(-c2ccc(Cl)cc2)nc1CN1C(=O)CN=C(c2ccccc2)c2ccccc21 | inactive: -13%
87 | C=CCC1([C@H](C)CCC)C(=O)NC(=O)NC1=O | inactive: -45.9%
88 | CCn1cnc2c(Nc3cccc(Cl)c3)nc(N[C@@H]3CCCC[C@@H]3N)nc21 | inactive: -6.02%
89 | O=C(Nc1ccon1)c1cccn(Cc2cccc(Cl)c2)c1=O | inactive: -7.35%
90 | CC[N+]1(CC)CCC(OC(=O)C(O)(c2ccccc2)c2ccccc2)C1 (stereo unspecified) | inactive: -8.81%
91 | O=S1(=O)N(CCN2CC=C(c3c[nH]c4cc(F)ccc34)CC2)c2cccc3c2N1CCC3 | inactive: -12.7%
